{"source": "ChEMBL document CHEMBL5606460", "about": "“ASAP - DENV-2 NS2B-NS3 protease fluorescence single point” (2024)", "target": "Genome polyprotein (dengue virus type 2) (UniProt P29990)", "key": {"[1]": {"conditions": "Thailand/16681/1984, Concentration 25.0 uM, Number of replicates 1.0"}}, "note": "In all, about 2,000 compounds went through this assay and about 110 (5.5%) showed an effect of 50% or more. The list shows a part of the results."}
{"smiles": "Cc1cc(CO)c2cccc(Cc3ccccc3NC(=O)c3nc(N)n[nH]3)c2n1", "values": [{"measurement": "inhibition", "setting": "Thailand/16681/1984, Concentration 49.95 uM, Number of replicates 2.0, Standard deviation 1.581349166072865 %", "result": 0.804, "unit": "%"}, {"measurement": "inhibition", "setting": "Thailand/16681/1984, Concentration 99.9 uM, Number of replicates 2.0, Standard deviation 1.2268610426733166 %", "result": 4.88, "unit": "%"}]}
{"smiles": "Cc1n[nH]c(NC(=O)C2CCN(c3ccc(C=O)cc3)CC2)c1Br", "values": [{"measurement": "inhibition", "setting": "[1]", "result": 12.1, "unit": "%"}]}
{"smiles": "CC(=O)Nc1ccc(C(=O)Nc2cccc(Cc3cccc4c(CO)cc(C)nc34)c2)cn1", "values": [{"measurement": "inhibition", "setting": "Thailand/16681/1984, Concentration 49.95 uM, Number of replicates 2.0, Standard deviation 1.3917429700895119 %", "result": -2.81, "unit": "%"}, {"measurement": "inhibition", "setting": "Thailand/16681/1984, Concentration 99.9 uM, Number of replicates 2.0, Standard deviation 0.3587453765676338 %", "result": 0.959, "unit": "%"}]}
{"smiles": "CN1CCC(C#N)(C(=O)N2CC(NC(=O)c3ccc4[nH]c(N(C)C)nc4c3)C2)CC1", "values": [{"measurement": "inhibition", "setting": "Thailand/16681/1984, Concentration 49.5 uM, Number of replicates 2.0, Standard deviation 1.0687011266628357 %", "result": -0.915, "unit": "%"}, {"measurement": "inhibition", "setting": "Thailand/16681/1984, Concentration 99.01 uM, Number of replicates 2.0, Standard deviation 1.1266884994016249 %", "result": 0.418, "unit": "%"}, {"measurement": "inhibition", "setting": "Thailand/16681/1984, Concentration 198.0 uM, Number of replicates 2.0, Standard deviation 1.3635152868867346 %", "result": 2.18, "unit": "%"}]}
{"smiles": "O=Cc1ccc(N2CCC(C(=O)Nc3nc4c(Cl)cccc4s3)CC2)cc1", "values": [{"measurement": "inhibition", "setting": "[1]", "result": 13.4, "unit": "%"}]}
{"smiles": "CN(C)Cc1cc(CNc2cc(Cl)cc(C(=O)NC(C)(C)CO)c2)ccc1O", "values": [{"measurement": "inhibition", "setting": "Thailand/16681/1984, Concentration 49.5 uM, Number of replicates 2.0, Standard deviation 0.18311558131267536 %", "result": -4.3, "unit": "%"}, {"measurement": "inhibition", "setting": "Thailand/16681/1984, Concentration 99.01 uM, Number of replicates 2.0, Standard deviation 1.0273017841204188 %", "result": -5.89, "unit": "%"}]}
{"smiles": "Cc1c(C(=O)N[C@@]2(C)CCN(Cc3cnn[nH]3)C2)ccc(O)c1NC(=O)c1ccncc1F", "values": [{"measurement": "inhibition", "setting": "Thailand/16681/1984, Concentration 49.5 uM, Number of replicates 2.0, Standard deviation 1.4737053563327684 %", "result": -3.39, "unit": "%"}, {"measurement": "inhibition", "setting": "Thailand/16681/1984, Concentration 99.01 uM, Number of replicates 2.0, Standard deviation 1.2620179206523758 %", "result": -3.3, "unit": "%"}, {"measurement": "inhibition", "setting": "Thailand/16681/1984, Concentration 198.0 uM, Number of replicates 2.0, Standard deviation 0.0004767651503552333 %", "result": -1.52, "unit": "%"}]}
{"smiles": "O=Cc1ccc(N2CCC(C(=O)N3CCN(C/C=C/c4ccccc4)CC3)CC2)cc1", "values": [{"measurement": "inhibition", "setting": "[1]", "result": 10.7, "unit": "%"}]}
{"smiles": "O=Cc1ccc(N2CCC(C(=O)N3CCN(C(=O)c4ccc(O)cc4)CC3)CC2)cc1", "values": [{"measurement": "inhibition", "setting": "[1]", "result": 12.3, "unit": "%"}]}
{"smiles": "NC(=O)C1CCN(Cc2c[nH]c3ccccc23)CC1", "values": [{"measurement": "inhibition", "setting": "Thailand/16681/1984, Concentration 49.5 uM, Number of replicates 2.0, Standard deviation 4.733884122874981 %", "result": -4.32, "unit": "%"}, {"measurement": "inhibition", "setting": "Thailand/16681/1984, Concentration 99.01 uM, Number of replicates 2.0, Standard deviation 4.912883221493597 %", "result": -4.51, "unit": "%"}, {"measurement": "inhibition", "setting": "Thailand/16681/1984, Concentration 198.0 uM, Number of replicates 2.0, Standard deviation 5.116814330495681 %", "result": -4.2, "unit": "%"}]}
{"smiles": "COc1cc(C(=O)NCc2ccccc2)nc(N2CCNCC2)n1", "values": [{"measurement": "inhibition", "setting": "Thailand/16681/1984, Concentration 49.5 uM, Number of replicates 2.0, Standard deviation 2.184924005133463 %", "result": -1.95, "unit": "%"}, {"measurement": "inhibition", "setting": "Thailand/16681/1984, Concentration 99.01 uM, Number of replicates 2.0, Standard deviation 2.834161372073491 %", "result": -1.15, "unit": "%"}, {"measurement": "inhibition", "setting": "Thailand/16681/1984, Concentration 198.0 uM, Number of replicates 2.0, Standard deviation 2.650064738568028 %", "result": -1.21, "unit": "%"}]}
{"smiles": "O=S(=O)(c1c[nH]c2ccccc12)N1CCC(c2cnc3ccc[nH]c2-3)CC1", "values": [{"measurement": "inhibition", "setting": "Thailand/16681/1984, Concentration 49.5 uM, Number of replicates 2.0, Standard deviation 0.7306995754585818 %", "result": -3.25, "unit": "%"}, {"measurement": "inhibition", "setting": "Thailand/16681/1984, Concentration 99.01 uM, Number of replicates 2.0, Standard deviation 0.7492386675662202 %", "result": -1.52, "unit": "%"}, {"measurement": "inhibition", "setting": "Thailand/16681/1984, Concentration 198.0 uM, Number of replicates 2.0, Standard deviation 0.06520690661775055 %", "result": -3.65, "unit": "%"}]}
{"smiles": "O=Cc1ccc(N2CCC(C(=O)Nc3c(F)cc(F)cc3Cl)CC2)cc1", "values": [{"measurement": "inhibition", "setting": "[1]", "result": 13.8, "unit": "%"}]}
{"smiles": "O=C(O)c1ccn(C2CCN(Cc3c[nH]c4ccccc34)CC2)n1", "values": [{"measurement": "inhibition", "setting": "Thailand/16681/1984, Concentration 49.5 uM, Number of replicates 2.0, Standard deviation 2.1869842063089484 %", "result": -2.55, "unit": "%"}, {"measurement": "inhibition", "setting": "Thailand/16681/1984, Concentration 99.01 uM, Number of replicates 2.0, Standard deviation 2.684345636447637 %", "result": -2.42, "unit": "%"}, {"measurement": "inhibition", "setting": "Thailand/16681/1984, Concentration 198.0 uM, Number of replicates 2.0, Standard deviation 2.4976754742252494 %", "result": -2.46, "unit": "%"}]}
{"smiles": "CC(C)N(C[C@H](O)COc1cccc2ccccc12)C(=O)C1CCN(c2ccc(C=O)cc2)CC1", "values": [{"measurement": "inhibition", "setting": "[1]", "result": 12.5, "unit": "%"}]}
{"smiles": "C[C@@H](c1ccccc1)N(CC1CC1)C(=O)C1CCN(c2ccc(C=O)cc2)CC1", "values": [{"measurement": "inhibition", "setting": "[1]", "result": 13.8, "unit": "%"}]}
{"smiles": "Cc1cc(CO)c2cccc(NC(=O)CC3CNC3)c2n1", "values": [{"measurement": "inhibition", "setting": "Thailand/16681/1984, Concentration 49.95 uM, Number of replicates 2.0, Standard deviation 1.3762045228616064 %", "result": 7.76, "unit": "%"}, {"measurement": "inhibition", "setting": "Thailand/16681/1984, Concentration 99.9 uM, Number of replicates 2.0, Standard deviation 1.6376626661863318 %", "result": 14.8, "unit": "%"}]}
{"smiles": "Cc1cc(CO)c2cccc(Cc3ccccc3C(=O)N3CC[C@@H](O)C3)c2n1", "values": [{"measurement": "inhibition", "setting": "Thailand/16681/1984, Concentration 49.95 uM, Number of replicates 2.0, Standard deviation 0.06396003425140426 %", "result": -4.12, "unit": "%"}, {"measurement": "inhibition", "setting": "Thailand/16681/1984, Concentration 99.9 uM, Number of replicates 2.0, Standard deviation 1.3201636707111568 %", "result": -1.44, "unit": "%"}]}
{"smiles": "O=Cc1ccc(N2CCC(C(=O)Nc3ncc(Br)nc3Cl)CC2)cc1", "values": [{"measurement": "inhibition", "setting": "[1]", "result": 11.8, "unit": "%"}]}
{"smiles": "O=Cc1ccc(N2CCC(C(=O)NC3(c4ccc(Cl)cc4)CC3)CC2)cc1", "values": [{"measurement": "inhibition", "setting": "[1]", "result": 12, "unit": "%"}]}
{"smiles": "O=Cc1ccc(N2CCC(C(=O)Nc3cccc(OC(F)(F)F)c3)CC2)cc1", "values": [{"measurement": "inhibition", "setting": "[1]", "result": 12.8, "unit": "%"}]}
{"smiles": "C[C@H]1c2cc(O)c(O)cc2CCN1C(=O)C1CCN(c2ccc(C=O)cc2)CC1", "values": [{"measurement": "inhibition", "setting": "[1]", "result": 17.9, "unit": "%"}]}
{"smiles": "O=Cc1ccc(N2CCC(C(=O)NCCc3cc(Cl)cc(Cl)c3)CC2)cc1", "values": [{"measurement": "inhibition", "setting": "[1]", "result": 3, "unit": "%"}]}
{"smiles": "O=Cc1ccc(N2CCC(C(=O)Nc3ncnc(Cl)c3Cl)CC2)cc1", "values": [{"measurement": "inhibition", "setting": "[1]", "result": 10.5, "unit": "%"}]}
{"smiles": "CN(CCc1ccccc1F)C(=O)C1CCN(c2ccc(C=O)cc2)CC1", "values": [{"measurement": "inhibition", "setting": "[1]", "result": 13.4, "unit": "%"}]}
